Among the targets are SHP2 C-SH2 domain E139D; SHP2 N-SH2 domain L43F; SHP2 N-SH2 domain T42A; SHP2 N-SH2 domain T52S.
Holding throughout (test): enrichment score (SH2-bound / input frequency) (ratio); bacterial display of known human phosphotyrosine sites (pTyr-Var adds point mutants) read by sequencing; higher = stronger binding; tyrosines were phosphorylated by kinases first
Conditions in all cases: peptide library: Human pTyr

For assay [1], the target named is SHP2 C-SH2 domain wild-type.
Assay [2] concerns the target SHP2 N-SH2 domain wild-type.

The values that follow come from the supplement of paper PMC10369915.

The other results are listed elsewhere or left out. No stated cut-off is given here; in the data, active = 3.2 or more and inactive = the rest. Most of these values are background signal.
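Further: displayed peptides selected on beads carrying the immobilized SH2 domain, with library peptides lacking any tyrosine serving as negative controls.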

B1: CTND1_HUMAN_257 (peptide)
chain: APSRQDVYGPQPQVR
On to B1, for which the enrichment score with SHP2 C-SH2 domain E139D is inactive: 0.875; in assay [1], inactive: 0.732; in the assay with SHP2 N-SH2 domain L43F, inactive: 0.716; with SHP2 N-SH2 domain T42A it was inactive: 0.708; in the assay with SHP2 N-SH2 domain T52S, inactive: 0.85; in assay [2], inactive: 0.96.

B2: CYC_HUMAN_49_YA (peptide)
chain: GQAPGASYTAANKNK
Consider B2, for which the enrichment score is inactive: 1.06 with SHP2 C-SH2 domain E139D; inactive: 0.877 in assay [1]; inactive: 0.875 in the assay with SHP2 N-SH2 domain L43F; inactive: 0.863 with SHP2 N-SH2 domain T42A; inactive: 0.957 with SHP2 N-SH2 domain T52S; inactive: 1.08 in assay [2].

B3: CSK_HUMAN_184 (peptide)
chain: VAAQDEFYRSGWALN
In the case of B3, the enrichment score with SHP2 C-SH2 domain E139D is inactive: 0.755; in assay [1], inactive: 0.669; with SHP2 N-SH2 domain L43F it was inactive: 0.795; with SHP2 N-SH2 domain T42A it was inactive: 0.644; in the assay with SHP2 N-SH2 domain T52S, inactive: 0.545; in assay [2], inactive: 0.751.

B4: DAB1_HUMAN_198 (peptide)
chain: EDVEDPVYQYIVFEA
As to B4, the enrichment score was inactive: 1.75 with SHP2 C-SH2 domain E139D; inactive: 1.55 in assay [1]; inactive: 1.68 with SHP2 N-SH2 domain L43F; inactive: 1.55 with SHP2 N-SH2 domain T42A; inactive: 1.65 in the assay with SHP2 N-SH2 domain T52S; inactive: 1.95 in assay [2].

B5: CXA1_HUMAN_247 (peptide)
chain: VKGKSDPYHATSGAL
On to B5, for which the enrichment score in the assay with SHP2 C-SH2 domain E139D was inactive: 0.861; in assay [1], inactive: 0.747; in the assay with SHP2 N-SH2 domain L43F it was inactive: 0.68; with SHP2 N-SH2 domain T42A, inactive: 0.881; with SHP2 N-SH2 domain T52S it was inactive: 0.887; in assay [2], inactive: 0.843.

B6: CTNB1_HUMAN_333_YA (peptide)
chain: NIMRTATYEKLLWTT
Consider B6, for which the enrichment score with SHP2 C-SH2 domain E139D is inactive: 1.02; in assay [1], inactive: 1.1; in the assay with SHP2 N-SH2 domain L43F, inactive: 2.82; in the assay with SHP2 N-SH2 domain T42A it was active: 4.08; with SHP2 N-SH2 domain T52S, inactive: 2.28; in assay [2] it was inactive: 0.9.

B7: ABLM1_HUMAN_396 (peptide)
chain: IPKVKAIYDIERPDL
In the case of B7, the enrichment score with SHP2 C-SH2 domain E139D is inactive: 0.658; in assay [1] it was inactive: 0.77; with SHP2 N-SH2 domain L43F, inactive: 0.899; in the assay with SHP2 N-SH2 domain T42A, inactive: 0.991; with SHP2 N-SH2 domain T52S, inactive: 0.85; in assay [2], inactive: 0.818.

B8: DAB1_HUMAN_232 (peptide)
chain: SQKKEGVYDVPKSQP
Take B8: the enrichment score in the assay with SHP2 C-SH2 domain E139D was inactive: 0.682; in assay [1], inactive: 0.666; with SHP2 N-SH2 domain L43F it was inactive: 0.747; with SHP2 N-SH2 domain T42A, inactive: 0.997; in the assay with SHP2 N-SH2 domain T52S it was inactive: 0.745; in assay [2] it was inactive: 0.793.

B9: CTNB1_HUMAN_333 (peptide)
chain: NIMRTYTYEKLLWTT
For B9, the enrichment score was inactive: 1.97 with SHP2 C-SH2 domain E139D; inactive: 2.43 in assay [1]; active: 6.33 in the assay with SHP2 N-SH2 domain L43F; active: 11.9 with SHP2 N-SH2 domain T42A; active: 4.28 in the assay with SHP2 N-SH2 domain T52S; inactive: 2.37 in assay [2].

B10: CU059_HUMAN_264 (peptide)
chain: EENDDDAYLNSPWAD
Consider B10, for which the enrichment score in the assay with SHP2 C-SH2 domain E139D is inactive: 1.24; in assay [1], inactive: 0.969; with SHP2 N-SH2 domain L43F, inactive: 1.02; with SHP2 N-SH2 domain T42A it was inactive: 1.13; with SHP2 N-SH2 domain T52S, inactive: 1.03; in assay [2] it was inactive: 0.969.

B11: CSK_HUMAN_416 (peptide)
chain: DGCPPAVYEVMKNCW
As to B11, the enrichment score with SHP2 C-SH2 domain E139D was inactive: 0.592; in assay [1], inactive: 0.644; with SHP2 N-SH2 domain L43F, inactive: 0.793; with SHP2 N-SH2 domain T42A it was inactive: 0.62; with SHP2 N-SH2 domain T52S, inactive: 0.662; in assay [2], inactive: 0.655.

B12: ABL2_HUMAN_683 (peptide)
chain: ENQPHKKYELTGNFS
With B12, the enrichment score is inactive: 0.791 in the assay with SHP2 C-SH2 domain E139D; inactive: 1 in assay [1]; inactive: 0.994 with SHP2 N-SH2 domain L43F; inactive: 0.786 in the assay with SHP2 N-SH2 domain T42A; inactive: 1.28 in the assay with SHP2 N-SH2 domain T52S; inactive: 1.36 in assay [2].

B13: CYP19A1_HUMAN_361_YA (peptide)
chain: KVMENFIYESMRAQP
For the molecule B13, the enrichment score in the assay with SHP2 C-SH2 domain E139D is inactive: 0.756; in assay [1] it was inactive: 0.795; in the assay with SHP2 N-SH2 domain L43F, inactive: 0.848; in the assay with SHP2 N-SH2 domain T42A, inactive: 0.897; with SHP2 N-SH2 domain T52S, inactive: 0.87; in assay [2], inactive: 1.36.

B14: CTLA4_HUMAN_201 (peptide)
chain: SPLTTGVYVKMPPTE
In the case of B14, the enrichment score is inactive: 0.747 with SHP2 C-SH2 domain E139D; inactive: 0.714 in assay [1]; inactive: 0.652 with SHP2 N-SH2 domain L43F; inactive: 0.476 with SHP2 N-SH2 domain T42A; inactive: 0.898 in the assay with SHP2 N-SH2 domain T52S; inactive: 0.737 in assay [2].

B15: CTTN_HUMAN_334 (peptide)
chain: VTQVSSAYQKTVPVE
Turning to B15, the enrichment score in the assay with SHP2 C-SH2 domain E139D was inactive: 0.798; in assay [1], inactive: 0.644; in the assay with SHP2 N-SH2 domain L43F, inactive: 0.739; with SHP2 N-SH2 domain T42A it was inactive: 0.624; with SHP2 N-SH2 domain T52S, inactive: 0.713; in assay [2], inactive: 0.752.

B16: DAPP1_HUMAN_139 (peptide)
chain: KVEEPSIYESVRVHT
B16: the enrichment score in the assay with SHP2 C-SH2 domain E139D is inactive: 0.905; in assay [1], inactive: 0.729; with SHP2 N-SH2 domain L43F, inactive: 0.681; with SHP2 N-SH2 domain T42A, inactive: 0.707; in the assay with SHP2 N-SH2 domain T52S, inactive: 1.62; in assay [2] it was inactive: 1.01.

B17: ABL2_HUMAN_718 (peptide)
chain: NLVPPKCYGGSFAQR
B17: the enrichment score with SHP2 C-SH2 domain E139D was inactive: 1.17; in assay [1] it was inactive: 1.03; with SHP2 N-SH2 domain L43F, inactive: 1.16; with SHP2 N-SH2 domain T42A, inactive: 0.942; with SHP2 N-SH2 domain T52S, inactive: 1.3; in assay [2], inactive: 1.18.

B18: CTRO_HUMAN_1196 (peptide)
chain: TERSDLEYQLENIQV
Consider B18, for which the enrichment score in the assay with SHP2 C-SH2 domain E139D is inactive: 0.974; in assay [1], inactive: 1.12; in the assay with SHP2 N-SH2 domain L43F, inactive: 0.973; in the assay with SHP2 N-SH2 domain T42A, inactive: 1.04; with SHP2 N-SH2 domain T52S it was inactive: 0.974; in assay [2], inactive: 0.717.
